Measurements published in PubChem BioAssay AID1745845 (National Center for Advancing Translational Sciences (NCATS), 2022).
Several values for one entry are separate records, joined by “and”; a condition that tells them apart may be missing. Equal values may be shown once. The campaign covered roughly 360,000 compounds. About 2,600 (0.72%) were called active. The shares of active, inactive and inconclusive entries below differ from those in the screen. Calls follow the shape of the dose curve; as a rule, active = well fitted inhibition curve with a large enough effect; inconclusive = small, poorly fitted or top-dose-only effect; inactive = no such curve, though single readings can be large or run the other way. Potencies of inconclusive entries are doubtful fits and often do not repeat.

Test: Primary qHTS for Inhibitors of ATXN expression; also: nearly all actives have a fitted effect of over 55% in size
Settings: HEK-293 ATXN2-luciferase reporter, luminescence, 24 h; series mostly up to 57 µM
Summary of the method: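 ATXN2-luciferase reporter cells (luciferase flanked by upstream and downstream ATXN2 gene portions) were treated 24 h at 37 °C with compounds at up to 57 uM. SteadyGlo luminescence gave expression; GF-AFC fluorescence gave viability.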
Potency is read from the fitted curve at half-maximal effect; tags tell the direction and shape of the fitted curve.

Row | Structure (SMILES) | Potency
1 | Cc1ccc(-c2nc(NCCN(C)C)c3ccccc3n2)cc1 | inactive
2 | O=C(CCNS(=O)(=O)c1ccc(Br)cc1)NC1CCN(Cc2ccccc2)CC1 | inactive
3 | COc1ccc(NC(=O)CN2CCc3ccccc3C2)cc1S(=O)(=O)N1CCOCC1 | inactive
4 | CN(C)CCNC=C(C(=O)Nc1ccc(Cl)cc1Cl)C(=O)Nc1ccc(Cl)cc1Cl | inconclusive: 31.6 µM [inhibitor, single point]
5 | CCCCCNCC(=O)Nc1cccc(C(=O)Nc2cccc(C(F)(F)F)c2)c1 | inconclusive: 37.7 µM [inhibitor, single point]
6 | c1ccc(CCNc2ccnc3cc4ccccc4cc23)cc1 | inconclusive: 4.23 µM [inhibitor, full curve, poor fit]
7 | Cc1c(C(=O)N/N=C/c2c(O)ccc3ccccc23)nnn1-c1nonc1N | active: 1.58 µM
8 | O=C(O)c1cn(-c2ccc(F)c(F)c2)c2c(F)c(F)c(F)c(F)c2c1=O | inconclusive: 39.8 µM [inhibitor, partial curve, poor fit]
9 | CCO[C@H]1OC(C(=O)NCc2nc3ccccc3[nH]2)=C[C@@H](C2CC2)[C@@H]1CCCO | inactive
10 | CCCOc1ccc(C(=O)NNC(=S)NC(=O)CC)cc1 | active: 28.2 µM
11 | COc1ccc(S(=O)(=O)N2CCCCCC2)cc1C(=O)N(C)Cc1ccc(Cl)cc1Cl | inconclusive: 22.4 µM [inhibitor, single point]
12 | Cn1c(=O)c2c(nc(CN3CCN(c4cccc(Cl)c4)CC3)n2CCc2ccccc2)n(C)c1=O | inconclusive: 22.4 µM [inhibitor, partial curve, poor fit]
13 | Cc1ccc(-c2cc(C(=O)N(C)Cc3cnn(C)c3C)c3cc(Br)ccc3n2)cc1 | inconclusive: 28.2 µM [inhibitor, partial curve]
14 | COc1cc(C(=O)NCCSc2c(-c3ccccc3)[nH]c3ccccc23)cc(OC)c1OC | inconclusive: 28.2 µM [inhibitor, single point]
15 | Cc1cc2cc(CN(Cc3ccco3)S(=O)(=O)c3c(C)ccc4nsnc34)c(=O)[nH]c2cc1C | inconclusive: 3.55 µM [inhibitor, single point]
16 | O=C(Nc1ncc(Cc2ccc(SC(F)F)cc2)s1)c1ccc(OC(F)F)cc1 | inconclusive: 8.91 µM [inhibitor, partial curve, poor fit]
17 | CN(C)CCN(Cc1ccc(Cl)cc1)c1ccccn1 | inactive
18 | C=CCn1c(SCC(=O)N2CCN(c3ccc(F)cc3)CC2)nnc1-c1ccco1 | inconclusive: 20 µM [inhibitor, partial curve, poor fit]
19 | CCOC(=O)c1cnc(-n2nc(C)cc2C)nc1NC(C)c1ccccc1 (stereo not given) | inconclusive: 35.5 µM [inhibitor, single point]
20 | Cc1cc(Nc2cccc(Cl)c2)nc2ccc(NC(=O)c3ccc(F)cc3Cl)cc12 | inconclusive: 31.6 µM [inhibitor, single point]

Row | Structure (SMILES) | Potency
21 | Cc1ccc2nc(/C(C#N)=C/c3ccc(-c4ccc(F)cc4F)o3)[nH]c2c1 | inconclusive: 3.98 µM [inhibitor, single point]
22 | NC(=S)NN=C1c2cc(OCCN3CCOCC3)ccc2-c2ccc(OCCN3CCOCC3)cc21 | active: 7.94 µM
23 | COc1ccc(-c2cc(C(F)F)n3ncc(C(=O)N4CCc5ccccc5C4)c3n2)cc1 | inconclusive: 22.4 µM [inhibitor, partial curve, poor fit]
24 | COc1cc([C@H]2c3[nH]c4ccccc4c3C[C@H]3C(=O)N4[C@@H](c5cc(OC)c(OC)c(OC)c5)c5[nH]c6ccccc6c5C[C@H]4C(=O)N23)cc(OC)c1OC | inconclusive: 15.8 µM [inhibitor, partial curve]
25 | COc1c(Cl)cc(Cl)cc1C(=O)Nc1ccc(NC(=O)c2cccs2)cc1 | inconclusive: 10 µM [inhibitor, partial curve]
26 | Cc1ccc(NC(=O)CCl)c(C)c1 | inconclusive: 37.7 µM [inhibitor, single point]
27 | CCOc1ccccc1Nc1sc(C(=O)c2ccc(Cl)cc2)c(N)c1C#N | inconclusive: 14.1 µM [inhibitor, partial curve, poor fit]
28 | NC(=O)c1ccc(NC(=O)COc2ccc(-n3cnnn3)cc2)cc1 | inactive
29 | CCOc1ccc(NC(=O)NCCCN2CCN(c3ccc(OC)cc3)CC2)cc1 | inactive
30 | FC(F)(F)c1cccc(NCc2n[nH]c(=S)n2C2CCCCC2)c1 | inconclusive: 33.6 µM [inhibitor, single point]
31 | COc1ccccc1CCNC(=O)c1cc(-c2ccncc2)nc2ccc(Br)cc12 | inconclusive: 16.8 µM [inhibitor, single point]
32 | COc1ccc(CNC(=O)c2sc(=O)n(Cc3ccc(S(=O)(=O)N(C)C)cc3)c2C)cc1 | inconclusive: 10 µM [inhibitor, partial curve, poor fit]
33 | O=C(CCCN1CCC(O)(c2ccc(Cl)cc2)CC1)c1ccc(F)cc1 | inconclusive: 27.3 µM [inhibitor, single point] and inconclusive: 11.2 µM [inhibitor, partial curve, poor fit]
34 | NC(=O)c1cc2ccccc2o/c1=N/NC(=O)c1cccc(Cl)c1 | inconclusive: 31.6 µM [inhibitor, partial curve, poor fit]
35 | Clc1ccccc1CNCCCSc1nnnn1-c1ccccc1 | inactive
36 | COc1cc2nc(=S)n3[nH]c(COc4ccccc4C)nc3c2cc1OC | inconclusive: 35.5 µM [inhibitor, single point]
37 | Cn1nc(C(F)(F)F)cc1C(=O)Nc1ccc(Cl)cc1 | inconclusive: 31.6 µM [inhibitor, single point]
38 | CCOCCCNC(=O)Cn1ncc2c([nH]c3ccccc32)c1=O | inactive
39 | Cn1ccnc1SCc1cn2cc(Br)ccc2n1 | inconclusive: 14.1 µM [inhibitor, single point]
40 | Cc1cc(C)cc(C(=O)Nc2ccc(N3CCN(C(=O)c4ccco4)CC3)cc2)c1 | inconclusive: 25.1 µM [inhibitor, partial curve]
